Measurements reported in publication PMC9911399, “Two distinct binding modes provide the RNA-binding protein RbFox with extraordinary sequence specificity”.
Substitutions are numbered along the chain they refer to; changes in the protein carry UniProt numbers. The list shows a part of the results.

T1: RBFOX1 RRM (Homo sapiens, UniProt Q9NWB1 109-208)
T1 sequence: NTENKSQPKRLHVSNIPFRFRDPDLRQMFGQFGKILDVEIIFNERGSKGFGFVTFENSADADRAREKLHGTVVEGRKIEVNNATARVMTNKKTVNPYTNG

B1: UGUGACU (DNA:RNA)
RNA: GGGAGACCGGAAUUCAGAUUGUCCUGUGACUUUAAAUCCCGUCGUAGCCACCA
DNA 1: CAATCTGAATTCCGGTCTCCC
DNA 2: TGGTGGCTACGACGGGATT
B2: UGGGCAA (DNA:RNA)
RNA: B1 RNA with U27G, A29C, C30A, U31A
DNA 1: CAATCTGAATTCCGGTCTCCC
DNA 2: TGGTGGCTACGACGGGATT
B3: CGUGUAG (DNA:RNA)
RNA: B1 RNA with U25C, A29U, C30A, U31G
DNA 1: CAATCTGAATTCCGGTCTCCC
DNA 2: TGGTGGCTACGACGGGATT
B4: GGCGCGA (DNA:RNA)
RNA: B1 RNA with U25G, U27C, A29C, C30G, U31A
DNA 1: CAATCTGAATTCCGGTCTCCC
DNA 2: TGGTGGCTACGACGGGATT
B5: AUGUCUG (DNA:RNA)
RNA: GGGAGACCGGAAUUCAGAUUGUCCAUGUCUGUUAAAUCCCGUCGUAGCCACCA
DNA 1: CAATCTGAATTCCGGTCTCCC
DNA 2: TGGTGGCTACGACGGGATT
B6: AUGGCUU (DNA:RNA)
RNA: B5 RNA with U28G, G31U
DNA 1: CAATCTGAATTCCGGTCTCCC
DNA 2: TGGTGGCTACGACGGGATT
B7: UAUAGAU (DNA:RNA)
RNA: B1 RNA with G26A, G28A, A29G, C30A
DNA 1: CAATCTGAATTCCGGTCTCCC
DNA 2: TGGTGGCTACGACGGGATT
B8: AUCGAUA (DNA:RNA)
RNA: B5 RNA with G27C, U28G, C29A, G31A
DNA 1: CAATCTGAATTCCGGTCTCCC
DNA 2: TGGTGGCTACGACGGGATT
B9: UUGGUUU (DNA:RNA)
RNA: B5 RNA with A25U, U28G, C29U, G31U
DNA 1: CAATCTGAATTCCGGTCTCCC
DNA 2: TGGTGGCTACGACGGGATT
B10: GACCAGU (DNA:RNA)
RNA: B1 RNA with U25G, G26A, U27C, G28C, C30G
DNA 1: CAATCTGAATTCCGGTCTCCC
DNA 2: TGGTGGCTACGACGGGATT
B11: AAGUCGA (DNA:RNA)
RNA: B5 RNA with U26A, U30G, G31A
DNA 1: CAATCTGAATTCCGGTCTCCC
DNA 2: TGGTGGCTACGACGGGATT
B12: UUCAGUA (DNA:RNA)
RNA: B5 RNA with A25U, G27C, U28A, C29G, G31A
DNA 1: CAATCTGAATTCCGGTCTCCC
DNA 2: TGGTGGCTACGACGGGATT
B13: ACAACCU (DNA:RNA)
RNA: B5 RNA with U26C, G27A, U28A, U30C, G31U
DNA 1: CAATCTGAATTCCGGTCTCCC
DNA 2: TGGTGGCTACGACGGGATT
B14: CCUACAC (DNA:RNA)
RNA: B5 RNA with A25C, U26C, G27U, U28A, U30A, G31C
DNA 1: CAATCTGAATTCCGGTCTCCC
DNA 2: TGGTGGCTACGACGGGATT
B15: GUAUCGC (DNA:RNA)
RNA: B5 RNA with A25G, G27A, U30G, G31C
DNA 1: CAATCTGAATTCCGGTCTCCC
DNA 2: TGGTGGCTACGACGGGATT
B16: UCUCACC (DNA:RNA)
RNA: B1 RNA with G26C, G28C, U31C
DNA 1: CAATCTGAATTCCGGTCTCCC
DNA 2: TGGTGGCTACGACGGGATT
B17: UAUUACU (DNA:RNA)
RNA: B1 RNA with G26A, G28U
DNA 1: CAATCTGAATTCCGGTCTCCC
DNA 2: TGGTGGCTACGACGGGATT
B18: AUGUCGA (DNA:RNA)
RNA: B5 RNA with U30G, G31A
DNA 1: CAATCTGAATTCCGGTCTCCC
DNA 2: TGGTGGCTACGACGGGATT
B19: GCAGGCG (DNA:RNA)
RNA: B1 RNA with U25G, G26C, U27A, A29G, U31G
DNA 1: CAATCTGAATTCCGGTCTCCC
DNA 2: TGGTGGCTACGACGGGATT
B20: GAAAGGC (DNA:RNA)
RNA: GGGAGACCGGAAUUCAGAUUGUCCGAAAGGCUUAAAUCCCGUCGUAGCCACCA
DNA 1: CAATCTGAATTCCGGTCTCCC
DNA 2: TGGTGGCTACGACGGGATT
B21: CGGUGCU (DNA:RNA)
RNA: B1 RNA with U25C, U27G, G28U, A29G
DNA 1: CAATCTGAATTCCGGTCTCCC
DNA 2: TGGTGGCTACGACGGGATT
B22: UUCAUCU (DNA:RNA)
RNA: B1 RNA with G26U, U27C, G28A, A29U
DNA 1: CAATCTGAATTCCGGTCTCCC
DNA 2: TGGTGGCTACGACGGGATT
B23: UGUACCA (DNA:RNA)
RNA: B1 RNA with G28A, A29C, U31A
DNA 1: CAATCTGAATTCCGGTCTCCC
DNA 2: TGGTGGCTACGACGGGATT
B24: CUCUAUC (DNA:RNA)
RNA: B5 RNA with A25C, G27C, C29A, G31C
DNA 1: CAATCTGAATTCCGGTCTCCC
DNA 2: TGGTGGCTACGACGGGATT
B25: GCUGUGU (DNA:RNA)
RNA: B1 RNA with U25G, G26C, A29U, C30G
DNA 1: CAATCTGAATTCCGGTCTCCC
DNA 2: TGGTGGCTACGACGGGATT
B26: AAUCAGU (DNA:RNA)
RNA: B1 RNA with U25A, G26A, G28C, C30G
DNA 1: CAATCTGAATTCCGGTCTCCC
DNA 2: TGGTGGCTACGACGGGATT
B27: GGCAGGA (DNA:RNA)
RNA: B20 RNA with A26G, A27C, C31A
DNA 1: CAATCTGAATTCCGGTCTCCC
DNA 2: TGGTGGCTACGACGGGATT
B28: UCCCGGC (DNA:RNA)
RNA: B20 RNA with G25U, A26C, A27C, A28C
DNA 1: CAATCTGAATTCCGGTCTCCC
DNA 2: TGGTGGCTACGACGGGATT
B29: AUUGACU (DNA:RNA)
RNA: B1 RNA with U25A, G26U
DNA 1: CAATCTGAATTCCGGTCTCCC
DNA 2: TGGTGGCTACGACGGGATT
B30: GUUAAGG (DNA:RNA)
RNA: B20 RNA with A26U, A27U, G29A, C31G
DNA 1: CAATCTGAATTCCGGTCTCCC
DNA 2: TGGTGGCTACGACGGGATT
B31: AGGUGUA (DNA:RNA)
RNA: B5 RNA with U26G, C29G, G31A
DNA 1: CAATCTGAATTCCGGTCTCCC
DNA 2: TGGTGGCTACGACGGGATT

biological target: T1, RBFOX1 RRM; experiment: EMSA; HiTS-Eq, 1 nM pool, 10 min; buffer printed only for the single-RNA assays: 10 mM Tris pH 7.5, 150 mM NaCl, 3.4 mM EDTA, 0.001% NP-40, 30 C; settings: tags: His6 N-terminal (pET28a); label: 5' 32P
Summary of the method: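 Purified RbFox RRM, wild type or mutant, was incubated for 10 min in 50 µL with 1 nM of a 5′-radiolabelled RNA pool carrying 7 randomized nucleotides, whose flanks were annealed to DNA oligonucleotides, over a series of increasing protein concentrations. Unbound RNA was resolved on 8% native PAGE, cut out, reverse-transcribed, barcoded by PCR and sequenced on an Illumina HiSeq 2500. Relative association constants were derived from changes in read counts for each RNA species versus the control reaction and normalised to the cognate motif.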

**Q.** With B1 as the binder, how does the binding signal read?
**A.** 0.0165 KA relative to UGCAUGU

**Q.** B2 was tested. Which binding signal did it give?
**A.** 0.0304 KA relative to UGCAUGU

**Q.** With B3 as the binder, how does the binding signal read?
**A.** 0.01 KA relative to UGCAUGU

**Q.** With B4 as the binder, how does the binding signal read?
**A.** 0.0218 KA relative to UGCAUGU

**Q.** B5 was tested. Which binding signal did it give?
**A.** 0.0158 KA relative to UGCAUGU

**Q.** For B6, which binding signal is on record?
**A.** 0.0132 KA relative to UGCAUGU

**Q.** For B7, which binding signal is on record?
**A.** 0.0118 KA relative to UGCAUGU

**Q.** For B8, which binding signal is on record?
**A.** 0.00619 KA relative to UGCAUGU

**Q.** B9 was tested. Which binding signal did it give?
**A.** 0.0272 KA relative to UGCAUGU

**Q.** For B10, which binding signal is on record?
**A.** 0.00685 KA relative to UGCAUGU

**Q.** With B11 as the binder, how does the binding signal read?
**A.** 0.00655 KA relative to UGCAUGU

**Q.** With B12 as the binder, how does the binding signal read?
**A.** 0.00931 KA relative to UGCAUGU

**Q.** For B13, which binding signal is on record?
**A.** 0.000511 KA relative to UGCAUGU

**Q.** How did the binding signal turn out when B14 was run?
**A.** 0.000769 KA relative to UGCAUGU

**Q.** B15 was tested. Which binding signal did it give?
**A.** 0.0143 KA relative to UGCAUGU

**Q.** Which binding signal does the source give for B16 here?
**A.** 0.00737 KA relative to UGCAUGU

**Q.** Which binding signal does the source give for B17 here?
**A.** 0.00399 KA relative to UGCAUGU

**Q.** How did the binding signal turn out when B18 was run?
**A.** 0.0144 KA relative to UGCAUGU

**Q.** For B19, which binding signal is on record?
**A.** 0.0163 KA relative to UGCAUGU

**Q.** With B20 as the binder, how does the binding signal read?
**A.** 0.00662 KA relative to UGCAUGU

**Q.** Which binding signal does the source give for B21 here?
**A.** 0.0158 KA relative to UGCAUGU

**Q.** B22 was tested. Which binding signal did it give?
**A.** 0.00163 KA relative to UGCAUGU

**Q.** How did the binding signal turn out when B23 was run?
**A.** 0.00834 KA relative to UGCAUGU

**Q.** Which binding signal does the source give for B24 here?
**A.** 0.00383 KA relative to UGCAUGU

**Q.** Which binding signal does the source give for B25 here?
**A.** 0.0228 KA relative to UGCAUGU

**Q.** B26 was tested. Which binding signal did it give?
**A.** 0.00628 KA relative to UGCAUGU

**Q.** How did the binding signal turn out when B27 was run?
**A.** 0.00916 KA relative to UGCAUGU

**Q.** How did the binding signal turn out when B28 was run?
**A.** 0.00242 KA relative to UGCAUGU

**Q.** With B29 as the binder, how does the binding signal read?
**A.** 0.00733 KA relative to UGCAUGU

**Q.** B30 was tested. Which binding signal did it give?
**A.** 0.00813 KA relative to UGCAUGU

**Q.** How did the binding signal turn out when B31 was run?
**A.** 0.00981 KA relative to UGCAUGU
